Hit rate of the full screen: of about 280,000 compounds, about 820 (0.29%) were called active. The shares of active, inactive and inconclusive entries below differ from those in the screen. Calls follow the shape of the dose curve; as a rule, active = well fitted curve in either direction with a large enough effect; inconclusive = small, poorly fitted or top-dose-only effect; inactive = flat fitted curve, though single readings scatter. No potency is given beside an inconclusive call; the fits are too rough.
Assay: Total Fluorescence Counterscreen for Inhibitors of the Interaction of Thyroid Hormone Receptor and Steroid Receptor Coregulator 2
Details: TRb/SRC2 Texas Red total fluorescence interference; series mostly up to 106 µM
Summary of the method: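 Human TRb ligand-binding domain at 0.6 uM with 20 nM Texas Red SRC2 peptide in Tris buffer containing 1 uM T3 and 5% DMSO, incubated with compound 5 h at ambient temperature. Total fluorescence (555/632 nm) calculated as parallel + 2 × perpendicular.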
For O=S(=O)(Cc1ccccc1)N1CCCc2ccccc21, the Potency was “inactive”. In the case of COc1cc(/C=C2\C(C)=C(C#N)c3nc(N)c(C#N)c(C)c32)ccc1OCC(=O)O, the Potency is reported as inconclusive [fluorescent, partial curve]. In the case of CCOc1ccc(-n2c(=O)c3c4c(sc3n(CC(=O)NC(C)CC)c2=O)CCCCC4)cc1 (stereo not given), the Potency is reported as inconclusive [quencher, partial curve]. For O=C1C=CC(=O)c2c(O)c(Cl)c(Cl)c(O)c21, the Potency was inconclusive [falling, full curve, poor fit]. For CCN1C(C(=O)c2ccccc2)=C(OC(=O)COc2ccc(C)cc2)c2ccccc2S1(=O)=O, the Potency was inconclusive [falling, full curve, poor fit]. In the case of COc1ccc(Cl)cc1NC(=O)N1CCN(S(=O)(=O)c2ccc3c(ccn3C)c2)CC1, the Potency is reported as inconclusive [falling, partial curve, poor fit]. For Cc1c(C(=O)NCc2ccc3c(c2)cc(C)n3C)cccc1[N+](=O)[O-], the Potency was inconclusive [rising, partial curve, poor fit]. With c1cncc(CNc2cc(-c3ccc4c(c3)OCO4)ncn2)c1 the Potency was “inactive”. In the case of S=C(Nc1ccc2nsnc2c1)N1CCCC1, the Potency is reported as “inactive”. With O=C(Nc1ccccc1F)C1CCCN(S(=O)(=O)c2ccccc2)C1 (stereo not given) the Potency was “inactive”. In the case of COc1ccc(CCNC(=O)CN2CCN(S(=O)(=O)c3ccc(Cl)cc3)CC2)cc1OC, the Potency is reported as “inactive”. With O=c1[nH]c(SCc2c(F)cccc2Cl)nc2c1CCC2 the Potency was “inactive”. For CCOC(=O)c1c(NC(=O)Cc2coc3cc(C)cc(C)c23)sc2c1CCC2, the Potency was active: 0.0251 µM [quencher]. In the case of CC(C)c1nn2c(=O)cc(COC(=O)c3ccc(NC(=O)COc4ccccc4)cc3)nc2s1, the Potency is reported as “inactive”. For CCCc1cc(=O)[nH]c(SCC(=O)N2CCN(c3ccccc3)CC2)n1, the Potency was inconclusive [falling, partial curve, poor fit]. For COc1c(O)cc2oc(-c3ccc(O)c(O)c3)cc(=O)c2c1O, the Potency was inconclusive [quencher, partial curve]. In the case of CCOc1ccc(C(=O)Cn2c(=O)n3nc(CCn4nc(C)cc4C)nc3c3cc(OC)c(OC)cc32)cc1, the Potency is reported as inconclusive [falling, full curve, poor fit]. In the case of O=c1cc(-c2ccccc2)[nH]n1-c1nc2ccccc2[nH]1, the Potency is reported as “inactive”. In the case of COc1ccccc1OCCn1c(NC(=O)c2ccccc2Cl)nc2ccccc21, the Potency is reported as inconclusive [quencher, full curve]. For COCCCNc1c2c3c(cccc3[nH]c1=O)C(=O)c1ccccc1-2, the Potency was inconclusive [fluorescent, partial curve]. In the case of CCOC(=O)C1=C(CN2CCN(c3ccc(OC)cc3)CC2)NC(=O)NC1c1ccc(OC)cc1 (stereo not given), the Potency is reported as active: 100 µM [quencher]. For CN1C(=O)C(Cc2c[nH]c3ccccc23)NC1=S (stereo not given), the Potency was inconclusive [falling, full curve, poor fit]. In the case of CC1(C)CC1C(=O)Nc1ccc([N+](=O)[O-])cc1Br (stereo not given), the Potency is reported as “inactive”. With CCCCN(CCCC)S(=O)(=O)c1ccc(C(=O)Nc2nnc(CSC)o2)cc1 the Potency was “inactive”. In the case of CCc1ccccc1NC(=O)N1CCOc2ccccc21, the Potency is reported as active: 0.0089 µM [quencher]. For Cc1cc2c(cc1S(=O)(=O)NCc1ccc(F)cc1)n(C)c(=O)c(=O)n2C, the Potency was inconclusive [quencher, full curve]. With COc1cccc(C(=O)NCC2OCCc3ccccc32)c1 (stereo not given) the Potency was inconclusive [falling, full curve, poor fit]. For CCC[C@H](NC(C)=O)C(=O)N[C@H]1CC(=O)ONCCCC[C@@H](C(N)=O)NC(=O)[C@H](Cc2c[nH]c3ccccc23)NC(=O)[C@H](CCCN=C(N)N)NC(=O)[C@@H](Cc2ccc3ccccc3c2)NC(=O)[C@H](Cc2cnc[nH]2)NC1=O, the Potency was “inactive”. In the case of Cc1ccc(C)c(N2CCN(c3ncnc4c3nc3n4CCCC3)CC2)c1, the Potency is reported as active: 20 µM [quencher]. In the case of Cc1cc(OCC(=O)Nc2ccc(N3CCN(C(=O)c4ccco4)CC3)cc2)cc(C)c1Cl, the Potency is reported as “inactive”. In the case of COc1ccc(-c2noc(CCC(=O)Nc3ccccc3Cl)n2)cc1OC, the Potency is reported as active: 0.004 µM [quencher]. In the case of CCCc1ccc(OCc2nc(-c3ccc(NC(=O)c4cccs4)cc3)no2)cc1, the Potency is reported as “inactive”. With CCCN(CCC)CCCNC(=O)c1nn(C)c2c1CS(=O)(=O)c1ccccc1-2 the Potency was active: 50.1 µM [quencher]. In the case of CCOc1ccccc1NC(=O)CSc1nc(-c2cccs2)cc(C(F)(F)F)n1, the Potency is reported as inconclusive [falling, partial curve, poor fit]. For COc1cccc(CNC(=O)C2CCN(c3ncnc4c3nc3n4CCCCC3)CC2)c1, the Potency was active: 20 µM [quencher]. For COc1ccc(C(=O)Nc2ccc(N3CCCC3)cc2)cc1, the Potency was “inactive”. For COc1cc2oc(-c3ccccc3)cc(=O)c2cc1OC, the Potency was “inactive”. With COc1ccc2c(c1)c(CC(=O)Nc1cc(C)c(OC)c(C)c1)c(C)n2C(=O)c1ccc(Cl)cc1 the Potency was inconclusive [falling, full curve, poor fit]. In the case of CCc1ccccc1NC(=O)CSc1nccn1C, the Potency is reported as inconclusive [quencher, full curve]. With COCCCNC(=O)CS(=O)(=O)Cc1nc(-c2cccc(OC)c2)oc1C the Potency was “inactive”. In the case of Cc1ccccc1OCC(=O)N/N=C/c1cn(Cc2ccccc2)c2ccccc12, the Potency is reported as inconclusive [falling, partial curve, poor fit]. In the case of O=C(O)Cc1c[nH]c2cccc(O)c12, the Potency is reported as inconclusive [quencher, partial curve]. In the case of CC(C)c1nnc(NC(=O)c2ccc(N3C(=O)CCC3=O)cc2)s1, the Potency is reported as “inactive”. In the case of CCOC(=O)NC1(Nc2cccc(Cl)c2)Oc2ccccc2O1, the Potency is reported as inconclusive [falling, partial curve, poor fit]. With Cc1ccc2nc(CSc3nnc(Nc4ccccc4F)s3)cc(=O)n2c1 the Potency was inconclusive [falling, partial curve, poor fit].
Potency is read from the fitted curve at half-maximal effect; tags tell the direction and shape of the fitted curve or compound fluorescence and quenching.
